In all, about 110,000 compounds were measured (“z-score”: median about -0.1, highest 2% from about 2 on). The list shows a part of the results. Activity calls are given as the source filed them.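 The calls were made as follows: active = z-score in the third read window above 3 or below -3; inactive = the rest.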

In the assay the target is Metabotropic glutamate receptor 8 (Rattus norvegicus) (UniProt P70579). Kind of assay: rat mGluR8 modulators via GIRK flux, primary screen, cell-based, thallium flux, HTS (AID 488969). The settings on record: HEK293 rat mGluR8, GIRK (G protein-gated inwardly rectifying potassium channel) thallium flux, FluoZin2; at 10 µM; stronger effect = higher value; submaximal glutamate (EC20) added with thallium.
UniProt P70579, sequence (P70579 whole entry, looked up): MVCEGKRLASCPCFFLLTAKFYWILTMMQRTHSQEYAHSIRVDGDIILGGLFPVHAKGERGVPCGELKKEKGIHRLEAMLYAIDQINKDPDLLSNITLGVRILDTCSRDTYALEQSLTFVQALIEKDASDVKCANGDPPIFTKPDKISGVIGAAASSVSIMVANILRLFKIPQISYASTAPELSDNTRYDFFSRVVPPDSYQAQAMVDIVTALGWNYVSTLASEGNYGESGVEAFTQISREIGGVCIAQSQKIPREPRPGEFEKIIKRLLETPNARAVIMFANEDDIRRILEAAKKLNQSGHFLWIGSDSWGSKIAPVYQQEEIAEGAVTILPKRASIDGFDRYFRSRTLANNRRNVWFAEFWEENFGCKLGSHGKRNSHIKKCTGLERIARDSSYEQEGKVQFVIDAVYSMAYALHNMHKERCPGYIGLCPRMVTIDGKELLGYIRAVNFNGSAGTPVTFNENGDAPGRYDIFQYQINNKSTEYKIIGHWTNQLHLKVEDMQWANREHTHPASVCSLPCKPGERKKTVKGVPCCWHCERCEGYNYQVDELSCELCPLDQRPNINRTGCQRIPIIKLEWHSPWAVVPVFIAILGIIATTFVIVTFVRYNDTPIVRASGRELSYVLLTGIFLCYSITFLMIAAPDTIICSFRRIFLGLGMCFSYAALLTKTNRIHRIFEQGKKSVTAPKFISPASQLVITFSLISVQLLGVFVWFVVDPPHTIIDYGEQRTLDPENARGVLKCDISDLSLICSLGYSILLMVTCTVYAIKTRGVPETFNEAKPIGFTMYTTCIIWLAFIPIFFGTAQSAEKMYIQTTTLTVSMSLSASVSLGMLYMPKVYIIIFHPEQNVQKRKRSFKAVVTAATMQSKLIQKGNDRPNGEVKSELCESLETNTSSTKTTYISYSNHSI
In the case of `COc1cc(C2C(C#N)=C(N)Oc3c2ccc2ccccc32)ccc1OCC(=O)Nc1ccc(C)cc1` (stereo not drawn), the z-score is -0.256.

Compound `Cc1c(-c2cccc(NC(=O)c3cccs3)c2)nc2ncccn12` yielded a z-score of -0.526.

As for `CCCC(=O)Nc1cccc(NC(=S)NC(=O)C(C)Oc2ccc(Cl)cc2Cl)c1` (stereo not drawn), the z-score was -0.0105.

Regarding `O=C1OC(c2ccccc2)C2(CCCC2)C(=O)C12CCCC2` (stereo not drawn), the z-score is -0.175.

`CO/N=C(/CNC(=O)c1ccccc1Cl)c1ccc(Cl)cc1` registered a z-score of -0.171.

For `Nc1ccc(C(=O)Nc2ccccc2C(=O)O)cc1`, the z-score amounted to 0.886.

`Nc1c(C(=O)C2CC2)sc2nc(-c3cccs3)cc(C(F)(F)F)c12` returned a z-score of 0.0123.

For `CCCc1nnc(NC(=O)Cn2c(=O)oc3cc(Br)ccc32)s1`, the z-score is -0.559.

`CC(=O)Nc1cc(C(=O)NCc2ccco2)ccc1Sc1ccc(C)cc1` registered a z-score of -0.055.

The compound `Cc1ccc(-c2nc(SCC(=O)NCCN3C(=O)CSC3=O)[nH]c2-c2ccc(C)cc2)cc1` came in with a z-score of 0.00784.

For the compound `N#CC1(Cc2ccc(Cl)cc2)c2ccccc2C=CN1C(=O)c1ccccc1` (stereo not drawn), the z-score was -0.14.

`O=C(NCCCn1ccnc1)c1ccc(S(=O)(=O)N2CCCCCC2)cc1` came in with a z-score of 0.0814.

Take `Cc1cccc(CN2CCN(CC(=O)NCc3ccc(F)cc3)C2=O)c1`: the z-score came out at 0.323.

`CS(=O)(=O)N1CCN(C(=O)C(Sc2ccccc2)c2ccccc2)CC1` (stereo not drawn) displayed a z-score of -0.0501.

As to `Cc1ccc(OC(=O)COc2ccccc2C)c(-n2nc3ccccc3n2)c1`, the z-score was -0.295.

In turn, `Cc1ccc(-n2nnnc2SCC(=O)N2CCCCC2)cc1` came in with a z-score of 0.332.

As for `Cc1ccc(S(=O)(=O)C2(C(=O)N3CCCCC3C)CC2)cc1` (stereo not drawn), the z-score is 0.622.

`CN(C)CCCNC(=O)CCc1nc2ccccc2c(=O)[nH]1`: the z-score was -0.157.

On to `CCSc1cc(N2CCCC2)nc(-c2ccccc2Cl)n1`, for which the z-score was -0.31.

Turning to `CCOC(=O)c1c(C)oc2ccc(O)c(CN3CCCCC3)c12`, the z-score was active: 3.52.

In turn, `CC1(C)Cc2c(sc3nc(SCC(=O)NCc4ccco4)n(-c4ccccc4)c(=O)c23)CS1` returned a z-score of -0.145.

Consider `Cc1cc(C)c(S(=O)(=O)NCCn2c(C)cc3ccccc32)c(C)c1`, for which the z-score is 0.132.

For the compound `CC(=O)Nc1ccn(Cc2c(F)cccc2Cl)n1`, the z-score was 0.193.

In turn, `COc1ccccc1C(=O)N/C(=C/c1ccccc1)C(=O)NC(CCSC)C(=O)O` (stereo not drawn) registered a z-score of -0.217.

As to `CC(=O)N/C(=C/c1ccccc1)C(=O)NC(Cc1ccccc1)C(=O)O` (stereo not drawn), the z-score stood at 0.151.

In the case of `CSCCC(NC(=O)c1ccccc1)C(=O)Nc1ccc(C)cc1` (stereo not drawn), the z-score was -0.151.

Turning to `Cc1ccc(CNCc2cccnc2)cc1`, the z-score is -0.18.

Consider `COc1ccc(C(=O)N=c2sc3c(C)ccc(OC)c3n2C)cc1`, for which the z-score is -0.723.

With `COc1ccc(/C=C2\CCCC3C2=NN(C(=O)c2scnc2C)C3c2ccc(OC)cc2)cc1` (stereo not drawn), the z-score was -0.049.

In the case of `Cc1cc(/C=C(/C#N)C(=O)O)c(C)n1CCC(C)C`, the z-score was 0.00791.

In the case of `CCOC(=O)c1c(C)n(-c2ccc(C)cc2)c2c(CC(C)=O)c(Br)c(OC)c(O)c12`, the z-score was -0.0818.

In turn, `O=C1c2cccc3cccc(c23)C(=O)N1c1ccncc1` came in with a z-score of 0.117.

In turn, `Cc1ccccc1NC(=O)C(C)c1ccc(-c2ccccc2)c(F)c1` (stereo not drawn) displayed a z-score of 0.231.

With `CCOC(=O)c1nc(N)c(=O)n(-c2ccc(C)cc2)n1`, the z-score stood at 1.41.

Compound `CC(=O)c1c(N2CCOCC2)nc(=S)n(-c2ccccc2)c1C` returned a z-score of 0.135.

`COc1ccc(C2C(C(=O)c3cccs3)=C(O)C(=O)N2c2nnc(C)s2)cc1OC` (stereo not drawn) had a z-score of 0.279.

For `O=C(COc1ccc(C(=O)c2ccc(F)cc2)cc1)NCc1ccc(F)cc1`, the z-score was -0.24.

Compound `Cc1sc2c(c1C)c(=O)nc1scc(CC(=O)O)n12` showed a z-score of 0.0284.

`CCOC(=O)Cn1nc(C)c2c1CCCC2=O` registered a z-score of 0.159.

For `COCC(=O)Nc1ccc(C(C)C)cc1`, the z-score was -0.217.

Turning to `O=C(Nc1cccc(NC(=O)c2ccccc2[N+](=O)[O-])n1)c1ccccc1[N+](=O)[O-]`, the z-score was -0.629.

Regarding `CC(=O)NCCNC(=O)[C@H](Cc1ccccc1)NC(=O)c1cccs1`, the z-score amounted to 0.2.

On to `Cc1cc(NC(=S)Nc2ccccc2)ccc1Br`, for which the z-score is 0.304.

The compound `O=C(OC(C(=O)NCc1cccs1)c1ccccc1Cl)c1ccco1` (stereo not drawn) gave a z-score of -0.793.

As for `COc1cc(C)c(S(=O)(=O)N2CCOCC2)cc1C`, the z-score was 0.136.

`COc1ccc(Cl)cc1Nc1nc(-c2sc(NC(=O)c3ccco3)nc2C)cs1` had a z-score of -0.591.

On to `O=C(c1cccs1)c1coc2ccc(O)c(CN3CCOCC3)c12`, for which the z-score was determined as 1.08.

In turn, `COc1cc(C(=O)Nc2nc(-c3ccc(F)cc3)cs2)ccc1OCC(=O)N1CCOCC1` returned a z-score of 0.0184.

Compound `Cc1ccc(C(=O)CSc2ccc(-c3ccccc3)nn2)cc1` displayed a z-score of -0.183.

Turning to `O=P(O)(O)C(O)C(F)(F)C(F)(F)C(F)(F)C(F)F` (stereo not drawn), the z-score is -0.236.

For the compound `COC(=O)c1cc(NC(=O)N2c3ccccc3Sc3ccccc32)cc(C(=O)OC)c1`, the z-score is -0.211.

On to `CC12COC3(C(=O)Nc4ccc(F)cc4)CC1CCC32C` (stereo not drawn), for which the z-score was -0.00125.

Compound `COc1ccc(C2c3c(oc4ccccc4c3=O)C(=O)N2Cc2ccncc2)cc1` (stereo not drawn) had a z-score of 0.116.

As to `COc1ccc(C(=O)C(CN2CCOCC2)c2ccccc2)cc1F` (stereo not drawn), the z-score was 0.233.

`O=C1c2ccccc2NC(c2c(Cl)cccc2Cl)N1Cc1ccccc1` (stereo not drawn) came in with a z-score of -0.191.

Consider `CC(=O)Nc1cc(C(C)(C)C)c(O)c(C(C)(C)C)c1`, for which the z-score is -0.502.

As to `N#Cc1cc(Oc2cccnc2)c(Oc2cccnc2)cc1C#N`, the z-score was 0.18.

Compound `Cc1cccc(OCC(=O)Nc2sc3c(c2C#N)CCC3)c1` had a z-score of -0.312.

As to `CNC(=S)NCCc1ccc(OC)c(OC)c1`, the z-score came to 0.44.

Compound `CC(OC(=O)c1cccnc1)C(=O)NCc1ccc2c(c1)OCO2` (stereo not drawn) showed a z-score of -0.223.

In the case of `Clc1ccc(Oc2nc3ccccc3n3cccc23)cc1`, the z-score was -0.864.

`CCOc1ccc(CCNC(=O)C2CCC(=O)N2C2CCCCC2)cc1OCC` (stereo not drawn) gave a z-score of -0.58.

Consider `COc1ccc(NC(=O)CCN2CCCC(C)C2)cc1` (stereo not drawn), for which the z-score came out at 0.469.

As to `CSc1ccccc1C(=O)Nc1cc(C)cc(C)c1`, the z-score was -0.0645.

The compound `CCOC(=O)CNc1ncc([N+](=O)[O-])cc1C#N` yielded a z-score of 0.0842.

In the case of `CCOC(=O)C(C)Sc1ncc(-c2ccc(Cl)cc2)cn1` (stereo not drawn), the z-score is -0.302.

With `COC(=O)C1=C(C)N(Cc2ccc(C)cc2)C(=O)C1`, the z-score was -0.106.

As to `CCc1cc2c(CN3CCN(C)CC3)cc(=O)oc2cc1O`, the z-score came out at 0.691.

`CCC1=C(OC(=O)c2ccccc2)C(C)(C)C(c2ccccc2)OC1=O` (stereo not drawn) displayed a z-score of 0.065.

The compound `Cn1nc(CC(=O)Nc2ncc(Br)s2)c2ccccc2c1=O` came in with a z-score of -0.694.

Compound `COc1ccc(Cc2c(O)nc[nH]c2=O)cc1` had a z-score of -0.109.

The compound `O=C(COc1ccc(Cl)cc1)NCCSCc1ccccc1Cl` displayed a z-score of -0.285.

`Cc1nnc(SCC(=O)N/N=C/c2cn(-c3ccccc3)nc2-c2ccccc2)n1-c1ccccc1` gave a z-score of -0.297.

For the origin of these results see PubChem BioAssay AID488969 (Vanderbilt High Throughput Screening Facility, 2010).
